From the supplement of paper PMC7826260
Some of the results follow. One pool of 16,384 single-stranded DNAs met each Rep nickase domain in vitro at 3 µM enzyme and 37 °C for 1 h; the strands have 90 letters, of which the middle is given. Uncut reads are compared with the no-enzyme pool on a log2 scale; more negative means more cut, near 0 not cut, and no call is made. Reads are scaled to the total; values above 0 arise when much of the pool is cut.

Legend:
Assay in all cases: uncleaved DNA left, log2 of reads against the no-enzyme library (log2 ratio); higher = less cleavage (more negative = more Rep cleavage of the k-mer); sequences stand for … in CTCGTCCG…ACCGGAGA
[1] = system: T1, Rep nickase domain of Muscovy duck circovirus
T1 sequence (residues 1-111, tag not shown): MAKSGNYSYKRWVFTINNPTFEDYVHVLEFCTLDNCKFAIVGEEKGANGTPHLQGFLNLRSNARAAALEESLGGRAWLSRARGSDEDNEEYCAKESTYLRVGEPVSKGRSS
Experimental: (§1)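 A pool of 90-nt single-stranded DNAs with seven random bases just before the constant AC of the nick site (name = the seven bases) was cut by 3 µM recombinant His6-SUMO-tagged Rep nickase domain (300 nM DNA, 50 mM HEPES pH 8.0, 50 mM NaCl, 1 mM MnCl2, 1 h, 37 °C, three replicates). Uncut DNA was amplified and sequenced.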

[2] = system: T2, Rep nickase domain of banana bunchy top virus
T2 sequence (residues 1-94, tag not shown): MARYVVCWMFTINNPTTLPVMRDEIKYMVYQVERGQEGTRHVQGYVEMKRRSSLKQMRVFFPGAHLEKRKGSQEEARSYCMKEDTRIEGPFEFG
Experimental: as §1

[3] = system: T3, Rep nickase domain of cabbage leaf curl virus
T3 sequence (residues 1-116, tag not shown): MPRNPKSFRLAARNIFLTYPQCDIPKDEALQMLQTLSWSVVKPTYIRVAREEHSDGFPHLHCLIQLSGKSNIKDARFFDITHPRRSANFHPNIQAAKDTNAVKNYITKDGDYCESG
Experimental: as §1

[4] = system: T4, Rep nickase domain of chickpea chlorotic dwarf virus
T4 sequence (residues 1-124, tag not shown): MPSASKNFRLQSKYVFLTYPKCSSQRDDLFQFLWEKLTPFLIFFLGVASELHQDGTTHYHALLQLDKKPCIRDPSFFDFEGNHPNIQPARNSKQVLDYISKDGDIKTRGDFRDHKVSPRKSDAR
Experimental: as §1

[5] = system: T5, Rep nickase domain of faba bean necrotic yellows virus
T5 sequence (residues 1-98, tag not shown): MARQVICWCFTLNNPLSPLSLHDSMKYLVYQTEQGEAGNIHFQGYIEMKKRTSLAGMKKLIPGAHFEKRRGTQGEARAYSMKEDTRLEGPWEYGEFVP
Experimental: as §1

[6] = system: T6, Rep nickase domain of maize striate mosaic virus
T6 sequence (residues 1-117, tag not shown): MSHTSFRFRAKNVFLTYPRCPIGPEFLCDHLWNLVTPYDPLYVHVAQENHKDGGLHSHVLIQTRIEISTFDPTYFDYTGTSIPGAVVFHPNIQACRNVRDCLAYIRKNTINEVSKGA
Experimental: as §1

[7] = system: T7, Rep nickase domain of porcine circovirus 2
T7 sequence (residues 2-116, tag not shown): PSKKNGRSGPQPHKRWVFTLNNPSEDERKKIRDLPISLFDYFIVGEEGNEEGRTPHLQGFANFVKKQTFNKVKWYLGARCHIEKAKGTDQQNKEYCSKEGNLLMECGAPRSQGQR
Experimental: as §1

[8] = system: T8, Rep nickase domain of tomato yellow leaf curl virus
T8 sequence (residues 1-136, tag not shown): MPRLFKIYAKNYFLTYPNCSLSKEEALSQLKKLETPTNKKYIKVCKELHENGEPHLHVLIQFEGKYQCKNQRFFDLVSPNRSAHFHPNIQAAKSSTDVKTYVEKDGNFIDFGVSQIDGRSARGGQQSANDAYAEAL
Experimental: as §1

[9] = system: T9, Rep nickase domain of wheat dwarf virus
T9 sequence (residues 1-137, tag not shown): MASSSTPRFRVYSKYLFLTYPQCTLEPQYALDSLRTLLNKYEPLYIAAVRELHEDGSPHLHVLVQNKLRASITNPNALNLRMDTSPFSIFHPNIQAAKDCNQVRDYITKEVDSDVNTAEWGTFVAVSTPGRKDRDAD
Experimental: as §1

Sequence	uncleaved DNA left (log2) [1]	uncleaved DNA left (log2) [2]	uncleaved DNA left (log2) [3]	uncleaved DNA left (log2) [4]	uncleaved DNA left (log2) [5]	uncleaved DNA left (log2) [6]	uncleaved DNA left (log2) [7]	uncleaved DNA left (log2) [8]	uncleaved DNA left (log2) [9]
AAAATGT	0.0149	-0.0351	-0.975	-2.14	0.00487	-1.03	-0.344	-0.0791	-0.323
CGGACTA	-0.0242	0.0132	0.681	1.71	-0.107	2.08	0.0175	-0.0756	0.119
GACCTCG	0.0289	-0.0593	-0.732	-0.522	-0.053	-0.935	-0.0163	0.063	-0.0472
AAGCTCT	0.208	0.0416	-0.122	-2.43	0.0706	0.564	-2.87	0.1	0.0823
GCTCTGC	0.0141	-0.0332	-0.269	-0.313	-0.1	-0.784	0.15	0.00643	-0.0599
TGAATTC	0.0258	0.0789	0.309	0.45	-0.0776	0.137	0.0213	-0.0158	0.169
ACAGGCT	0.0438	0.0919	-0.453	-0.895	0.0965	-0.632	0.239	0.115	-0.0673
GGTTCCT	-0.0221	0.128	0.441	0.747	0.271	1.82	-0.276	0.197	0.188
GGGAAGT	0.0767	0.157	0.818	2.05	0.0657	2.3	0.171	0.11	0.19
ATTAGAC	0.0317	0.0585	0.164	0.404	0.075	-0.441	0.168	-0.0233	0.101
ATACAGA	0.0563	-0.015	-0.156	-0.839	0.0587	-0.848	0.111	-0.0184	0.0365
GTTTTCT	-0.158	-0.049	0.25	0.655	-0.0434	1.57	-0.257	-0.0354	0.0303
AACAAAA	0.0385	-0.0143	-0.0332	-0.542	0.00218	-0.696	0.0232	-0.0818	-0.0394
TTGGCAC	-0.0385	0.0373	0.136	0.132	-0.0126	-0.213	0.00309	0.09	0.0147
TACCAAC	-0.0627	0.0172	-0.169	-1.6	-0.0711	-0.251	-0.331	0.0798	0.00709
GGTGTCA	0.101	0.0562	0.672	1.53	0.0189	2.09	0.201	0.18	0.124
GTTTACT	-1.59	0.00505	0.308	0.26	0.0704	1.65	-2.07	0.0468	-0.00798
ACAGGGT	0.0491	0.0828	0.293	1.14	0.184	0.994	0.241	0.0354	0.0949
ATTTTAT	-0.781	-0.372	-0.00893	-1.14	0.069	-0.693	-1.82	0.00298	-0.117
GAGGCGT	0.064	-0.0091	0.0975	0.527	-0.0105	0.0868	0.0948	-0.0641	-0.0261
TCAACAG	-0.0321	0.00926	-0.694	-1.67	-0.0192	-1.1	0.106	0.0325	-0.0792
TAGCGGA	0.104	0.141	-0.0624	-0.167	-0.0125	-0.399	-0.0348	-0.0231	-0.0731
ATTCCTC	-0.0375	0.0885	0.0842	0.00683	-0.0234	-0.208	-1.04	-0.00753	0.106
ATCATAT	-0.0678	-0.158	-0.0262	-0.925	-0.0394	-0.855	0.0225	-0.105	-0.00542
GGCCGGC	0.0392	0.0918	0.513	1.08	0.0834	1.52	0.155	-0.0867	0.0685
TATCCTA	-0.0377	-0.0493	-0.00388	-2	0.0322	-0.21	-0.203	0.071	0.0886
CTTCGAC	-0.0162	-0.0779	-0.0204	-0.383	-0.111	-0.751	0.0304	-0.0588	-0.0513
GACTGAC	-0.0138	0.0126	-0.106	0.584	-0.152	0.445	0.15	-0.0324	0.0796
GGTAAGT	0.0318	0.16	0.708	1.55	0.126	1.95	0.229	0.181	0.161
TCAGGGT	0.02	0.124	0.3	1.55	0.0562	1.87	0.0508	-0.0253	-0.00986
